Source: the GPR68 mutational scans of Howard et al. (2025)

B1: GPR68, Q15743 (parent)
chain: MGNITADNSSMSCTIDHTIHQTLAPVVYVTVLVVGFPANCLSLYFGYLQIKARNELGVYLCNLTVADLFYICSLPFWLQYVLQHDNWSHGDLSCQVCGILLYENIYISVGFLCCISVDRYLAVAHPFRFHQFRTLKAAVGVSVVIWAKELLTSIYFLMHEEVIEDENQHRVCFEHYPIQAWQRAINYYRFLVGFLFPICLLLASYQGILRAVRRSHGTQKSRKDQIQRLVLSTVVIFLACFLPYHVLLLVRSVWEASCDFAKGVFNAYHFSLLLTSFNCVADPVLYCFVSETTHRDLARLRGACLAFLTCSRTGRAREAYPLGAPEASGKSGAQGEEPELLTKLHPAFQTPNSPGSGGFPTGRLA

Tests used:
[1] = variants of: B1; experiment: cAMP reporter score (Enrich2 score, wild type = 0); higher = more signal; HEK293T, FACS bins
[2] = variants of: B1; experiment: surface expression score (Enrich2 score, wild type = 0); higher = more signal; HEK293T, FACS bins

Row | Variant | cAMP reporter score ([1]; pH 5.5) | cAMP reporter score ([1]; pH 6) | cAMP reporter score ([1]; pH 6, modulator: ogerin) | cAMP reporter score ([1]; pH 6.5, modulator: ogerin) | surface expression score [2]
1 | MGNITADNSSMSCTIDHTIHQGLAPVVYVTVLVVGFPANCLSLYFGYLQIKARNELGVYLCNLTVADLFYICSLPFWLQYVLQHDNWSHGDLSCQVCGILLYENIYISVGFLCCISVDRYLAVAHPFRFHQFRTLKAAVGVSVVIWAKELLTSIYFLMHEEVIEDENQHRVCFEHYPIQAWQRAINYYRFLVGFLFPICLLLASYQGILRAVRRSHGTQKSRKDQIQRLVLSTVVIFLACFLPYHVLLLVRSVWEASCDFAKGVFNAYHFSLLLTSFNCVADPVLYCFVSETTHRDLARLRGACLAFLTCSRTGRAREAYPLGAPEASGKSGAQGEEPELLTKLHPAFQTPNSPGSGGFPTGRLA [T22G] | -0.482 | -0.334 | -0.672 | -0.436 | -0.422
2 | MGNITADNSSMSCTIDHTIHQHLAPVVYVTVLVVGFPANCLSLYFGYLQIKARNELGVYLCNLTVADLFYICSLPFWLQYVLQHDNWSHGDLSCQVCGILLYENIYISVGFLCCISVDRYLAVAHPFRFHQFRTLKAAVGVSVVIWAKELLTSIYFLMHEEVIEDENQHRVCFEHYPIQAWQRAINYYRFLVGFLFPICLLLASYQGILRAVRRSHGTQKSRKDQIQRLVLSTVVIFLACFLPYHVLLLVRSVWEASCDFAKGVFNAYHFSLLLTSFNCVADPVLYCFVSETTHRDLARLRGACLAFLTCSRTGRAREAYPLGAPEASGKSGAQGEEPELLTKLHPAFQTPNSPGSGGFPTGRLA [T22H] | -0.215 | -0.992 | -0.228 | -0.35 | -0.601
3 | MGNITADNSSMSCTIDHTIHQILAPVVYVTVLVVGFPANCLSLYFGYLQIKARNELGVYLCNLTVADLFYICSLPFWLQYVLQHDNWSHGDLSCQVCGILLYENIYISVGFLCCISVDRYLAVAHPFRFHQFRTLKAAVGVSVVIWAKELLTSIYFLMHEEVIEDENQHRVCFEHYPIQAWQRAINYYRFLVGFLFPICLLLASYQGILRAVRRSHGTQKSRKDQIQRLVLSTVVIFLACFLPYHVLLLVRSVWEASCDFAKGVFNAYHFSLLLTSFNCVADPVLYCFVSETTHRDLARLRGACLAFLTCSRTGRAREAYPLGAPEASGKSGAQGEEPELLTKLHPAFQTPNSPGSGGFPTGRLA [T22I] | 0.369 | -0.508 | 0.381 | -0.07 | 1.49
4 | MGNITADNSSMSCTIDHTIHQKLAPVVYVTVLVVGFPANCLSLYFGYLQIKARNELGVYLCNLTVADLFYICSLPFWLQYVLQHDNWSHGDLSCQVCGILLYENIYISVGFLCCISVDRYLAVAHPFRFHQFRTLKAAVGVSVVIWAKELLTSIYFLMHEEVIEDENQHRVCFEHYPIQAWQRAINYYRFLVGFLFPICLLLASYQGILRAVRRSHGTQKSRKDQIQRLVLSTVVIFLACFLPYHVLLLVRSVWEASCDFAKGVFNAYHFSLLLTSFNCVADPVLYCFVSETTHRDLARLRGACLAFLTCSRTGRAREAYPLGAPEASGKSGAQGEEPELLTKLHPAFQTPNSPGSGGFPTGRLA [T22K] | 0.183 | -0.668 | -0.389 | -1.25 | 0.531

Scores with a large standard error are left out. The source holds two more conditions with little spread; they are left out. Names with del lack the residues named; names with ins carry added residues between the positions named. For some assays here: The data file names ogerin without a concentration.
